# Reference: the supplement of paper PMC8728848
# The other results are listed elsewhere or left out.
# How the values were obtained:
# Assay in all cases: glycan array binding signal (z-score within array); higher = stronger binding
# Details in all cases: glycan notation: IUPAC condensed, linker removed
# [1] = target: Fuc(a1-2)[Gal(a1-3)]Gal(b1-4)[Fuc(a1-3)]Glc
# Method in brief: (§1)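 From the Consortium for Functional Glycomics database, 3228 arrays were curated, keeping only those whose protein sequence was available. Binding is given as a within-array Z-score averaged across arrays sharing a protein sequence and across linkers. Negative Z-scores can be read as non-binding.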
# [2] = target: Fuc(a1-2)[Gal(a1-3)]Gal(b1-4)[Fuc(a1-3)]GlcNAc
# Method in brief: as §1
# [3] = target: Fuc(a1-2)[Gal(a1-3)]Gal(b1-4)[Fuc(a1-3)]GlcNAc(b1-3)GalNAc
# Method in brief: as §1
# [4] = target: Fuc(a1-2)[Gal(a1-4)]Gal(b1-4)GalNAc
# Method in brief: as §1
# [5] = target: Fuc(a1-2)[Gal(a1-4)]Gal(b1-4)GlcNAc
# Method in brief: as §1
# [6] = target: Fuc(a1-2)[GalNAc(a1-3)]Gal
# Method in brief: as §1
# [7] = target: Fuc(a1-2)[GalNAc(a1-3)]Gal(b1-3)GalNAc(a1-3)[Fuc(a1-2)]Gal(b1-4)GlcNAc
# Method in brief: as §1
# [8] = target: Fuc(a1-2)[GalNAc(a1-3)]Gal(b1-3)GalNAc(b1-3)Gal(a1-4)Gal(b1-4)Glc
# Method in brief: as §1
# [9] = target: Fuc(a1-2)[GalNAc(a1-3)]Gal(b1-3)GlcNAc
# Method in brief: as §1
# [10] = target: Fuc(a1-2)[GalNAc(a1-3)]Gal(b1-3)GlcNAc(b1-2)Man(a1-3)[Fuc(a1-2)[GalNAc(a1-3)]Gal(b1-3)GlcNAc(b1-2)Man(a1-6)]Man(b1-4)GlcNAc(b1-4)GlcNAc
# Method in brief: as §1
# [11] = target: Fuc(a1-2)[GalNAc(a1-3)]Gal(b1-3)GlcNAc(b1-2)Man(a1-3)[Fuc(a1-2)[GalNAc(a1-3)]Gal(b1-3)GlcNAc(b1-2)Man(a1-6)]Man(b1-4)GlcNAc(b1-4)[Fuc(a1-6)]GlcNAc
# Method in brief: as §1
# [12] = target: Fuc(a1-2)[GalNAc(a1-3)]Gal(b1-3)GlcNAc(b1-3)GalNAc
# Method in brief: as §1
# [13] = target: Fuc(a1-2)[GalNAc(a1-3)]Gal(b1-3)GlcNAc(b1-6)GalNAc
# Method in brief: as §1
# [14] = target: Fuc(a1-2)[GalNAc(a1-3)]Gal(b1-4)Glc
# Method in brief: as §1
# [15] = target: Fuc(a1-2)[GalNAc(a1-3)]Gal(b1-4)GlcNAc
# Method in brief: as §1
# [16] = target: Fuc(a1-2)[GalNAc(a1-3)]Gal(b1-4)GlcNAc(b1-2)Man
# Method in brief: as §1
# [17] = target: Fuc(a1-2)[GalNAc(a1-3)]Gal(b1-4)GlcNAc(b1-2)Man(a1-3)[Fuc(a1-2)[GalNAc(a1-3)]Gal(b1-4)GlcNAc(b1-2)Man(a1-6)]Man(b1-4)GlcNAc(b1-4)GlcNAc
# Method in brief: as §1
# [18] = target: Fuc(a1-2)[GalNAc(a1-3)]Gal(b1-4)GlcNAc(b1-2)Man(a1-3)[Fuc(a1-2)[GalNAc(a1-3)]Gal(b1-4)GlcNAc(b1-2)Man(a1-6)]Man(b1-4)GlcNAc(b1-4)[Fuc(a1-6)]GlcNAc
# Method in brief: as §1
# [19] = target: Fuc(a1-2)[GalNAc(a1-3)]Gal(b1-4)GlcNAc(b1-3)Gal(b1-4)GlcNAc
# Method in brief: as §1
# [20] = target: Fuc(a1-2)[GalNAc(a1-3)]Gal(b1-4)GlcNAc(b1-3)Gal(b1-4)GlcNAc(b1-3)Gal(b1-4)GlcNAc
# Method in brief: as §1
# [21] = target: Fuc(a1-2)[GalNAc(a1-3)]Gal(b1-4)GlcNAc(b1-3)GalNAc
# Method in brief: as §1
# [22] = target: Fuc(a1-2)[GalNAc(a1-3)]Gal(b1-4)GlcNAc(b1-3)[Fuc(a1-2)[GalNAc(a1-3)]Gal(b1-4)GlcNAc(b1-6)]GalNAc
# Method in brief: as §1
# [23] = target: Fuc(a1-2)[GalNAc(a1-3)]Gal(b1-4)GlcNAc(b1-6)GalNAc
# Method in brief: as §1
# [24] = target: Fuc(a1-2)[GalNAc(a1-3)]Gal(b1-4)[Fuc(a1-3)]GlcNAc
# Method in brief: as §1
# [25] = target: Fuc(a1-2)[GalNAc(a1-3)]Gal(b1-4)[Fuc(a1-3)]GlcNAc(b1-3)GalNAc
# Method in brief: as §1
# [26] = target: Fuc(a1-2)[GalNAc(a1-4)]Gal(b1-4)GlcNAc
# Method in brief: as §1
# [27] = target: Fuc(a1-2)[GalNAc(b1-3)]Gal
# Method in brief: as §1
# Fuc(a1-3)GlcNAc = target: Fuc(a1-3)GlcNAc
# Method in brief: as §1
# [28] = target: Fuc(a1-3)[Gal(b1-4)]Glc6S
# Method in brief: as §1
# [29] = target: Fuc(a1-3)[Gal(b1-4)]GlcNAc
# Method in brief: as §1
# [30] = target: Fuc(a1-3)[Gal(b1-4)]GlcNAc(b1-2)Man
# Method in brief: as §1
# [31] = target: Fuc(a1-3)[Gal(b1-4)]GlcNAc(b1-2)Man(a1-3)[Fuc(a1-3)[Gal(b1-4)]GlcNAc(b1-2)Man(a1-6)]Man(b1-4)GlcNAc(b1-4)GlcNAc
# Method in brief: as §1
# [32] = target: Fuc(a1-3)[Gal(b1-4)]GlcNAc(b1-2)Man(a1-3)[Fuc(a1-3)[Gal(b1-4)]GlcNAc(b1-2)Man(a1-6)]Man(b1-4)GlcNAc(b1-4)[Fuc(a1-6)]GlcNAc
# Method in brief: as §1
# [33] = target: Fuc(a1-3)[Gal(b1-4)]GlcNAc(b1-3)Gal(b1-3)[Fuc(a1-4)]GlcNAc
# Method in brief: as §1
# [34] = target: Fuc(a1-3)[Gal(b1-4)]GlcNAc(b1-3)Gal(b1-4)[Fuc(a1-3)]GlcNAc
# Method in brief: as §1
# [35] = target: Fuc(a1-3)[Gal(b1-4)]GlcNAc(b1-3)Gal(b1-4)[Fuc(a1-3)]GlcNAc(b1-3)Gal(b1-4)[Fuc(a1-3)]GlcNAc
# Method in brief: as §1
# [36] = target: Fuc(a1-3)[Gal(b1-4)]GlcNAc(b1-3)GalNAc
# Method in brief: as §1
# [37] = target: Fuc(a1-3)[Gal(b1-4)]GlcNAc(b1-4)Gal(b1-4)[Fuc(a1-3)]GlcNAc
# Method in brief: as §1
# [38] = target: Fuc(a1-3)[Gal(b1-4)]GlcNAc(b1-4)Gal(b1-4)[Fuc(a1-3)]GlcNAc(b1-4)Gal(b1-4)[Fuc(a1-3)]GlcNAc
# Method in brief: as §1
# [39] = target: Fuc(a1-3)[Gal(b1-4)]GlcNAc(b1-6)GalNAc
# Method in brief: as §1
# [40] = target: Fuc(a1-3)[Gal(b1-4)]GlcNAc(b1-6)[Gal(b1-3)GlcNAc(b1-3)]Gal(b1-4)Glc
# Method in brief: as §1
# [41] = target: Fuc(a1-3)[Gal(b1-4)]GlcNAc(b1-6)[Neu5Ac(a2-3)Gal(b1-3)]GalNAc
# Method in brief: as §1
# [42] = target: Fuc(a1-3)[Gal(b1-4)]GlcNAc6S
# Method in brief: as §1
# [43] = target: Fuc(a1-3)[Gal3S(b1-4)]Glc
# Method in brief: as §1
# [44] = target: Fuc(a1-3)[Gal3S(b1-4)]Glc6S
# Method in brief: as §1
binder,measurement,setting,value
Gal 7 (Homo sapiens) (protein) MSNVPHKSSLPEGIRPGTVLRIRGLVPPNASRFHVNLLCGEEGGSDAALHFNPRLDTSEVVFNSKEGGSWGREERGPGVPFGRGQPFEVLIIASDDGFKAVVGDAQYHHFRHRLPLARVRLVEVGGDVQLDSVRIF,glycan array binding signal (z-score),[1],-0.29
same,glycan array binding signal (z-score),[2],-0.215
same,glycan array binding signal (z-score),[3],0.143
same,glycan array binding signal (z-score),[4],-0.319
same,glycan array binding signal (z-score),[5],-0.283
same,glycan array binding signal (z-score),[6],-0.302
same,glycan array binding signal (z-score),[7],-0.275
same,glycan array binding signal (z-score),[8],-0.204
same,glycan array binding signal (z-score),[9],-0.071
same,glycan array binding signal (z-score),[10],-0.065
same,glycan array binding signal (z-score),[11],-0.066
same,glycan array binding signal (z-score),[12],0.543
same,glycan array binding signal (z-score),[13],-0.122
same,glycan array binding signal (z-score),[14],0.292
same,glycan array binding signal (z-score),[15],-0.286
same,glycan array binding signal (z-score),[16],-0.264
same,glycan array binding signal (z-score),[17],-0.273
same,glycan array binding signal (z-score),[18],0.188
same,glycan array binding signal (z-score),[19],-0.304
same,glycan array binding signal (z-score),[20],0.975
same,glycan array binding signal (z-score),[21],-0.108
same,glycan array binding signal (z-score),[22],-0.309
same,glycan array binding signal (z-score),[23],-0.265
same,glycan array binding signal (z-score),[24],-0.196
same,glycan array binding signal (z-score),[25],0.459
same,glycan array binding signal (z-score),[26],-0.23
same,glycan array binding signal (z-score),[27],-0.241
same,glycan array binding signal (z-score),Fuc(a1-3)GlcNAc,-0.304
same,glycan array binding signal (z-score),[28],-0.162
same,glycan array binding signal (z-score),[29],-0.32
same,glycan array binding signal (z-score),[30],-0.175
same,glycan array binding signal (z-score),[31],-0.116
same,glycan array binding signal (z-score),[32],0.221
same,glycan array binding signal (z-score),[33],-0.256
same,glycan array binding signal (z-score),[34],-0.252
same,glycan array binding signal (z-score),[35],-0.266
same,glycan array binding signal (z-score),[36],0.304
same,glycan array binding signal (z-score),[37],-0.214
same,glycan array binding signal (z-score),[38],-0.332
same,glycan array binding signal (z-score),[39],0.994
same,glycan array binding signal (z-score),[40],-0.117
same,glycan array binding signal (z-score),[41],0.659
same,glycan array binding signal (z-score),[42],-0.157
same,glycan array binding signal (z-score),[43],-0.272
same,glycan array binding signal (z-score),[44],-0.263
